Test results as given in paper PMC4755543.
Results are given in words; binding and its absence hold for the method and conditions named. In cells and extracts the contact can be indirect. Some entries that bind do so weakly or less than the wild type.

By UniProt entry, the sequences of proteins in these tests, tags left out. Where a name states a change or a piece, a line headed by the entry shows the natural chain unless it says otherwise.
UniProt Q5EE01: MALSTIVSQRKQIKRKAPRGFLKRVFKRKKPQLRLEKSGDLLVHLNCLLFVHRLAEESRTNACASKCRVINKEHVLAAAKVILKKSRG
UniProt Q8NBT2: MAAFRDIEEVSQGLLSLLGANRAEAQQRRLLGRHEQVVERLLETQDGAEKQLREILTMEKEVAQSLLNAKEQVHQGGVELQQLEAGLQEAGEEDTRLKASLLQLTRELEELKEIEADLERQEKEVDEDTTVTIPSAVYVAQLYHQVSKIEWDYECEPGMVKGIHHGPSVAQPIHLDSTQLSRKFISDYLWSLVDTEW
UniProt Q9HBM1: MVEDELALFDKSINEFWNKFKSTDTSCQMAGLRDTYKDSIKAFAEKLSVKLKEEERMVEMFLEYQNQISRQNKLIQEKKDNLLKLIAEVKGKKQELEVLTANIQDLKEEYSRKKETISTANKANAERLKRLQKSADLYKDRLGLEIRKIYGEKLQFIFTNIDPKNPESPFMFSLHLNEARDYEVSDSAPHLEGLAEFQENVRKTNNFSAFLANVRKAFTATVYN
UniProt Q00839: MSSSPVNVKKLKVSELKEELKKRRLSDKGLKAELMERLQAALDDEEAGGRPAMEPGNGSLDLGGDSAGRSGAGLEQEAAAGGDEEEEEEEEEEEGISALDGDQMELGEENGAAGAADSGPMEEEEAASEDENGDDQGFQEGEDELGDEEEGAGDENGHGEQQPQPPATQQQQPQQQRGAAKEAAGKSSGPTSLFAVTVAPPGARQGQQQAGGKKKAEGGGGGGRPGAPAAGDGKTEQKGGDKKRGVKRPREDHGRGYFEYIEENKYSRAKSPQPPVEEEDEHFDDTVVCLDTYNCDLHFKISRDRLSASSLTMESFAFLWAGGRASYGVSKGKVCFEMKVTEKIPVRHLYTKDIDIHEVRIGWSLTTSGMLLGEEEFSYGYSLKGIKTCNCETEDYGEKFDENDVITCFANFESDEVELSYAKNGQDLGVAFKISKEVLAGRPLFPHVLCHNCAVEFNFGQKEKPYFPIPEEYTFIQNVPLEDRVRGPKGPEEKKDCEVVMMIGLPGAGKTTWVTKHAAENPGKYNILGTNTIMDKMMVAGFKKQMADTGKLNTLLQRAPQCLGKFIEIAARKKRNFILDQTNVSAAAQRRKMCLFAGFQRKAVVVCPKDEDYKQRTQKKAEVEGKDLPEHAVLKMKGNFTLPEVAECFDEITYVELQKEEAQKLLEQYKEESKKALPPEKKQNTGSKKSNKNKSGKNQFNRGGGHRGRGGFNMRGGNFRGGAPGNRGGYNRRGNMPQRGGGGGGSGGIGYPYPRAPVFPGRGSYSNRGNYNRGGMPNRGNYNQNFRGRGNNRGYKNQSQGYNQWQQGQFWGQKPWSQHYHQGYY
UniProt Q96BT3: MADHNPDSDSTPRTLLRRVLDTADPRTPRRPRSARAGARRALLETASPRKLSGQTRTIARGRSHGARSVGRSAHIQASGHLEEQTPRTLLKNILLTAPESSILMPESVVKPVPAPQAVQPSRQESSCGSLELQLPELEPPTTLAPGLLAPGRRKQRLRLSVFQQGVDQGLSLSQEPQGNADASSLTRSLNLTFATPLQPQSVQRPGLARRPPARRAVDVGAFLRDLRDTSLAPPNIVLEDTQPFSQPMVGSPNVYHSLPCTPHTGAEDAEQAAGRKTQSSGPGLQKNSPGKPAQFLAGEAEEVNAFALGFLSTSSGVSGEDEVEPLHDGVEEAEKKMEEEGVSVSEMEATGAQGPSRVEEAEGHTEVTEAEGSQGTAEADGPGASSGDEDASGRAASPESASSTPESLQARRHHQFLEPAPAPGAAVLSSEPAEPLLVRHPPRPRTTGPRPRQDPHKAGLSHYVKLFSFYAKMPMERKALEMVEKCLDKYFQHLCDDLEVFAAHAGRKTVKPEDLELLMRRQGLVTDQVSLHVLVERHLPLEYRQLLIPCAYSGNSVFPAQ

Key:
[1] = biological target: endogenous CENP-W (293T cells) (human (endogenous in 293T)) (UniProt Q5EE01); assay: co-IP; Endogenous proteins; 293T cell lysates immunoprecipitated with anti-CENP-W or anti-hnRNP U antibody (1 ug, 2 h, 4°C); immunoblot
[2] = biological target: HA-SPC24 (expressed in 293T cells) (human) (UniProt Q8NBT2); assay: co-IP; 293T cells transfected with HA-SPC25 or HA-SPC24, GST-CENP-W and FLAG-hnRNP U; immunoprecipitation with anti-HA antibody
[3] = biological target: HA-SPC25 (expressed in 293T cells) (human) (UniProt Q9HBM1); assay: as above
[4] = biological target: GST-hnRNP U (expressed in 293T cells) (human) (UniProt Q00839); assay: pull-down; GST fusion and FLAG-tagged partner co-transfected in 293T cells; lysates incubated with glutathione agarose beads; immunoblot
[5] = biological target: endogenous hnRNP U (293T cells) (human (endogenous in 293T)) (UniProt Q00839); assay: co-IP; Endogenous proteins; 293T cell lysates immunoprecipitated with anti-CENP-W or anti-hnRNP U antibody (1 ug, 2 h, 4°C); immunoblot
[6] = biological target: GST-CENP-W (expressed in E. coli) (human) (UniProt Q5EE01); assay: pull-down; His-HA-SPC25 and GST-CENP-W expressed in E. coli; bacterial lysates used for GST pull-down
[7] = biological target: His-HA-SPC25 (expressed in E. coli) (human) (UniProt Q9HBM1); assay: co-IP; E. coli lysates with His-CENP-T, His-HA-SPC25 and GST-CENP-W; immunoprecipitation with anti-HA antibody

## endogenous SPC25 (293T cells) (from UniProt Q9HBM1 1-224)
[1]
  binding: binds

## GST-CENP-W (expressed in 293T cells) (from UniProt Q5EE01 1-88)
[2]
  binding: binds
[3]
  binding: binds

## FLAG-CENP-W deletion mutant (1-30) (expressed in 293T cells) (from UniProt Q5EE01 1-30) (domain or fragment)
[4]
  binding: no binding

## endogenous CENP-W (293T cells) (from UniProt Q5EE01 1-88)
[5]
  binding: binds

## His-HA-SPC25 (expressed in E. coli) (from UniProt Q9HBM1 1-224)
[6]
  binding: binds

## endogenous CENP-T (293T cells) (from UniProt Q96BT3 1-561)
[1]
  binding: binds

## FLAG-CENP-W (transiently expressed in 293T cells) (from UniProt Q5EE01 1-88)
[4]
  binding: binds

## GST-CENP-W (expressed in E. coli) (from UniProt Q5EE01 1-88)
[7]
  binding: binds
